# From PubChem BioAssay AID463173 (ICCB-Longwood Screening Facility, Harvard Medical School, 2010)
# Hit rate of the full screen: of about 52,000 compounds, about 1,700 (3.3%) were called active. Rule as the data show it: active = survival mostly below about 52% (no sharp cut-off); inactive = mostly above about 56%. This is one part of the list.
# System: Wild type
# Assay: S. aureus survival, RN4220 and DeltatarO strains – OD600, teichoic acid synthesis inhibitors, primary screen (AID 463173)
# Conditions: S. aureus RN4220 wild type/DeltatarO growth, OD600, 18 h, hits give low values, screened at 18.75 µg/mL (by protocol)
row,SMILES,survival
1,CC(C)CC(=O)Nc1nc2nc(-c3ccccc3)cc(=O)n2[nH]1,inactive: 89%
2,COC(=O)c1c(Oc2ccc(OC)cc2)nnc(-c2ccccc2)c1-c1ccccc1,inactive: 118%
3,CCCN1CCN(C(=O)Cn2c(-c3cccs3)cc3ccccc32)CC1,inactive: 74%
4,Cc1ccc(NC(=O)c2cnc(N3CCCCC3)c3ccccc23)c(C)c1,inactive: 73%
5,COCCCNC(=O)C1CCN(C(=O)c2cnn(-c3ccccc3)c2-n2cccc2)CC1,inactive: 84%
6,Cc1cccc(NC(=O)N2CCN(C(=O)c3nsc4ccccc34)CC2)c1C,inactive: 72%
7,Cc1ccc(N2C(=O)NC(NS(=O)(=O)c3ccccc3)(C(F)(F)F)C2=O)cc1C (configuration not stated),inactive: 69%
8,COc1ccc(CNC(=O)CCCn2nc(C)c3sc4ccccc4c3c2=O)cc1OC,inactive: 84%
9,CCOc1ccccc1CNC(=O)c1ccc(N2Cc3ccccc3Oc3ncccc32)s1,inactive: 84%
10,Cc1cc(C)c(C#N)c(SCc2cccnc2)n1,inactive: 100%
11,Cc1ccc2c(CC(=O)Nc3ccc(S(=O)(=O)N4CCCCC4C)cc3)coc2c1 (configuration not stated),inactive: 79%
12,Cc1ccc(CNC(=O)c2cccn2-c2nnc(N3CCCC3)s2)cc1,inactive: 79%
13,COc1cccc(NC(=O)CN2C(=O)CSc3ccc(S(=O)(=O)N4CCCC4)cc32)c1,inactive: 107%
14,COc1ccc(N2CCN(C(=O)c3cnn(-c4ccc(F)cc4)c3-n3cccc3)CC2)cc1,inactive: 71%
15,COC(=O)COc1ccc2oc(-c3ccc(OC)cc3)cc(=O)c2c1,inactive: 58%
16,Clc1ccc2c(c1)-c1c(cnc3cc(-c4ccccc4)nn13)CO2,inactive: 78%
17,O=C(Nc1ccc(Br)cc1F)C1CCN(c2nc3ccccc3[nH]2)CC1,inactive: 99%
18,CCOC(=O)c1cc2ccccc2[nH]c1=O,inactive: 119%
19,CCC1CCCCN1CCCNC(=O)CN1C(=O)c2cccnc2Oc2ccc(C)cc21 (configuration not stated),inactive: 74%

row,SMILES,survival
1,CSc1cccc(Nc2cc(C(=O)NCCc3ccc(Cl)cc3)c3ccccc3n2)c1,inactive: 120%
2,Cc1ccc(CNC(=O)CCc2c(C)c3ccc(O)c(C)c3oc2=O)cc1,inactive: 87%
3,O=C1CCCc2cc(S(=O)(=O)N3CCCC(C(=O)Nc4ccc(F)c(Cl)c4)C3)ccc2N1 (configuration not stated),inactive: 67%
4,CCOc1ccc(C(=O)Nc2nnc(S(=O)(=O)Nc3ccccc3)s2)cc1,inactive: 49%
5,CCOc1cc2[nH]c(=O)n(CCCCC(=O)N3CCN(c4ccc(OC)cc4)CC3)c(=O)c2cc1OCC,inactive: 71%
6,Cc1ccc2[nH]c(C)cc(=S)c2c1,inactive: 98%
7,CCOc1ccc2nc(N3CCC(C(=O)Nc4ccccc4CC)CC3)sc2c1,inactive: 77%
8,CC1CN(C(=O)N2CCC(C(=O)N3CCN(c4ccccc4)CC3)CC2)c2cc(Cl)ccc2O1 (configuration not stated),inactive: 82%
9,Cc1ccc(CCNc2ncnc3onc(-c4ccc(F)cc4)c23)cc1,inactive: 84%
10,CCOC(=O)c1ccc2[nH]c3c(c2c1)CCCCC3=O,inactive: 120%
11,CCN(CC)C(=O)c1sc2c(c1C)c(=O)n(-c1ccc(Cl)c(Cl)c1)c(=O)n2Cc1cc(=O)n2ccccc2n1,inactive: 118%
12,COc1cccc(CNC(=O)Cn2c(=O)n3nc(-c4cccc(F)c4)nc3c3ccccc32)c1,inactive: 73%
13,CC(=O)Nc1ccc(S(=O)(=O)N2CCC(c3nnc(-c4ccc(C)cc4)o3)CC2)cc1,inactive: 92%
14,CC(C)C(=O)N1c2nc(-c3ccco3)nn2C2(CCCCC2)[C@@H]2CCCC[C@@H]21,inactive: 94%
15,Cc1oc2c(cc(NS(=O)(=O)c3ccc(C(C)C)cc3)c3ccccc32)c1C(=O)O,inactive: 60%
16,Cc1ccc(S(=O)(=O)c2[nH]c(-c3ccccc3)nc2SCC(N)=O)cc1,inactive: 79%
17,COc1ccc(NC(=O)CCn2c(=O)c3cccn3c3cccnc32)cc1Cl,inactive: 92%
18,O=C(Cn1c(=O)n(CCCS(=O)(=O)C2CCCCC2)c(=O)c2ccccc21)Nc1ccccc1C(F)(F)F,inactive: 81%
19,Cc1ccc(C)c(N2CCN(C(=O)CCS(=O)(=O)c3cc4c(cc3Cl)NC(=O)CO4)CC2)c1,inactive: 74%

row,SMILES,survival
1,CCn1c(SCC(=O)NC(C)(C)C)nnc1-c1cccc(C)c1,inactive: 101%
2,COC(=O)c1sc2ncccc2c1-n1c(C)ccc1C,inactive: 80%
3,Cc1cc(Br)c2c3c(c(N)c(=O)[nH]c13)-c1ccccc1C2=O,inactive: 103%
4,COc1ccccc1CNS(=O)(=O)c1ccc2c(c1)CC(=O)N2C,inactive: 119%
5,CCOC(=O)N1CCN(C(=O)c2c(C)nn(-c3cccc(C)c3)c2-n2cccc2)CC1,active: -3%
6,COc1ccc(CNC(=O)C2=C(C)C(=O)OC23CCCCC3)cc1,inactive: 85%
7,COc1ccc(-n2ncc3c2ncn2nc(COc4ccc(Cl)cc4)nc32)cc1,inactive: 118%
8,CCCSc1nnc2c(n1)OC(c1ccc(Br)s1)Nc1ccccc1-2 (configuration not stated),inactive: 88%
9,O=C(NCc1ccc2c(c1)CCN2C(=O)c1ccccc1)c1ccccc1,inactive: 63%
10,CCOc1ccccc1NC(=O)C(CC)Sc1nc2ncccc2[nH]1 (configuration not stated),inactive: 60%
11,Cc1ccc2oc3c(c(=O)c2c1)C(c1ccccc1F)N(CCCN(C)C)C3=O (configuration not stated),inactive: 76%
12,O=C(Cn1ncc2ccsc2c1=O)N1CCN(c2ccc(F)cc2)CC1,inactive: 72%
13,CCC1CN(C(=O)Nc2cccc3c2CCCC3)c2cc(Cl)ccc2O1 (configuration not stated),inactive: 84%
14,Cc1ccc(-n2ncc3c(N4CCC(C(N)=O)CC4)ncnc32)cc1,inactive: 47%
15,COc1ccc(CCNC(=O)CSc2cn(CCNC(=O)c3cccc(C(F)(F)F)c3)c3ccccc23)cc1OC,inactive: 74%
16,Cc1cc(C(F)F)n2nc(C(=O)Nc3ccc(C(C)C)cc3)nc2n1,inactive: 68%
17,Cc1oc(-c2ccccc2Cl)nc1CS(=O)CC(=O)NCc1ccc(Cl)cc1 (configuration not stated),inactive: 68%
18,O=C(Nc1ccccc1)N1CCCCC1,inactive: 112%
19,Cc1ccc(S(=O)(=O)N2CCc3cc(C(=O)Nc4ccc(C(F)(F)F)cc4)ccc32)cc1,inactive: 88%
